Measured values taken from patent publication US20130171162A1, “COMPOSITIONS AND METHODS FOR THE PREVENTION OF OXIDATIVE DEGRADATION OF PROTEINS” (priority 2008, published 2013).

Experiment: Anti-CD11a antibody oxidation by AAPH
Format: physicochemical

B1: anti-CD11a antibody: anti-CD11a antibody designed to selectively and reversibly block activation, reactivation and trafficking of T-cells that lead to psoriasis (antibody, chains of the INN, looked up)
heavy: EVQLVESGGGLVQPGGSLRLSCAASGYSFTGHWMNWVRQAPGKGLEWVGMIHPSDSETRYNQKFKDRFTISVDKSKNTLYLQMNSLRAEDTAVYYCARGIYFYGTTYFDYWGQGTLVTVSS[… human IgG1 constant region …]
light: DIQMTQSPSSLSASVGDRVTITCRASKTISKYLAWYQQKPGKAPKLLIYSGSTLQSGVPSRFSGSGSGTDFTLTISSLQPEDFATYYCQQHNEYPLTFGQGTKVEIKRTVAAPSVFIFPPSDEQLKSGTASVVCLLNNFYPREAKVQWKVDNALQSGNSQESVTEQDSKDSTYSLSSTLTLSKADYEKHKLYACEVTHQGLSSPVTKSFNRGEC
% Oxidized HC-M35 (t = 0): 0.5%
% Oxidized HC-M50 (t = 0): 1.6%
% Oxidized HC-M256 (t = 0): 5.3%
% Oxidized HC-M362 (t = 0): 0.6%
% Oxidized HC-M35 (t = 8 hr): 2.3%
% Oxidized HC-M50 (t = 8 hr): 8.2%
% Oxidized HC-M256 (t = 8 hr): 14.3%
% Oxidized HC-M362 (t = 8 hr): 1.2%
% Oxidized HC-M35 (t = 24 hr): 4.1%
% Oxidized HC-M50 (t = 24 hr): 20%
% Oxidized HC-M256 (t = 24 hr): 31.6%
% Oxidized HC-M362 (t = 24 hr): 3.2%
